Laboratory results taken from paper PMC11207571, “Applicability of MDR1 Overexpressing Abcb1KO-MDCKII Cell Lines for Investigating In Vitro Species Differences and Brain Penetration Prediction” (Pharmaceutics, 2024).

Experiments:
[1] = molecular target: human MDR1 (Homo sapiens, UniProt P08183); assay: Bidirectional transport assay, efflux ratio in Abcb1KO-MDCKII hMDR1 cells; conditions: MDCK-MDR1, pH 7.4
Protocol: (§1) Eluent A consisted of 0.1% formic acid in water, eluent B consisted of 0.1% formic acid in acetonitrile. Then, 10 µL samples were injected into the HPLC-MS/MS system. Mass spectrometric detection was performed in SRM mode, and ion transitions for each analyte were optimized during method development. Samples were analyzed in pools, with each pool containing three to four analytes.

[2] = molecular target: T1, human BCRP (Homo sapiens, UniProt Q9UNQ0); assay: Bidirectional transport assay, efflux ratio in MDCKII-BCRP cells; conditions: pH 7.4
T1 sequence (Q9UNQ0 1-655): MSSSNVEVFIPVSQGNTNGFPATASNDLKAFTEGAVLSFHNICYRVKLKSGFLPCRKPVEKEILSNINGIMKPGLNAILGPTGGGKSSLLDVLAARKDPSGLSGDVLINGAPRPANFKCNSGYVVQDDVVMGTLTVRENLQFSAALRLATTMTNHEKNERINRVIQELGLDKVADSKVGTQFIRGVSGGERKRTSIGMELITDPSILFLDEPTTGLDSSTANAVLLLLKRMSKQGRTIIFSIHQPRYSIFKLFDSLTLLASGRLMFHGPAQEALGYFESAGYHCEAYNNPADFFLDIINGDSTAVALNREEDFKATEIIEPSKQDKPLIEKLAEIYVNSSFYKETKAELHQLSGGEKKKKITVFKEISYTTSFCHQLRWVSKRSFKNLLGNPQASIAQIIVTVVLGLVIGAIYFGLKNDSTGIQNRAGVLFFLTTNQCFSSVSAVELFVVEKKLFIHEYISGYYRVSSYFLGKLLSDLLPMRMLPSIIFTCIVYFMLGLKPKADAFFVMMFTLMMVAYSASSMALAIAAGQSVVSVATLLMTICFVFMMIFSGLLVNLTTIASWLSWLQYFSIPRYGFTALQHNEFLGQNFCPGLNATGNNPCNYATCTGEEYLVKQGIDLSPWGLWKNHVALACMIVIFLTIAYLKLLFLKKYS
Protocol: as §1

[3] = molecular target: T2, cynomolgus monkey Mdr1 (Macaca fascicularis, UniProt Q8HZQ6); assay: Bidirectional transport assay, efflux ratio in Abcb1KO-MDCKII cyMDR1 cells; conditions: pH 7.4
Protocol: as §1

[4] = Bidirectional transport assay, efflux ratio in Abcb1KO-MDCKII-Mock control cells; conditions: dog, MDCK, pH 7.4
Protocol: as §1

[5] = test system: hMDR1 and hBCRP; assay: Brain permeability classification from total ER of hMDR1 and hBCRP against in vivo rodent Kp,uu,brain; conditions: total ER cut-off 3; in vivo rodent Kp,uu,brain cut-off 0.3
Protocol: MDR1 and/or BCRP substrate properties were investigated by binary classification analysis on CNS+ and CNS− compounds. […] True negative (TN), where there was no efflux and the CNS+ compound crossed the BBB. […] The sensitivity and specificity of the estimation of brain penetration along with MDR1 and BCRP activity were calculated from predictive performance metrics.
First, NET ER was calculated and used for human predictions, (2) NET ER=ER(−inh)[…]ER(+inh) where ER(−inh) is ER in the absence of inhibitor, and ER(+inh) is ER in the presence of inhibitor, for hMDR1 (ERMDR1) or hBCRP (ERBCRP).
To identify the correlation between the in vivo rodent Kp,uu,brain and ERs, 58 compounds with known Kp,uu,brain were selected. […] Predictive performance metrics were calculated to show the efficacy of the established cell lines in BBB permeability classification (Table 1). […]
Subsequently, for a more reliable prediction of brain penetration, data generated in the hBCRP cell line were included in the analysis. hBCRP assay conditions and evaluations were identical to that of MDR1 cell lines, which allowed proper comparisons (Figure 2E,F). Total ER was calculated by combining ERs determined in BCRP and hMDR1 cell lines based on Equation (3), with an ER cut-off of 3. […] Eventually, total ERs were also assessed with the Relative Expression Factor (REF) (Equation (4); Figure 2E,F). […]

[6] = molecular target: T3, mouse Mdr1a (Mus musculus, UniProt P21447); assay: Bidirectional transport assay, efflux ratio in Abcb1KO-MDCKII mMDR1 cells; conditions: pH 7.4
Protocol: as §1

[7] = molecular target: T4, rat Mdr1a (Rattus norvegicus, UniProt Q6PSM0); assay: Bidirectional transport assay, efflux ratio in Abcb1KO-MDCKII rMDR1 cells; conditions: pH 7.4
Protocol: as §1

[8] = molecular target: T2, cynomolgus monkey Mdr1; assay: Inhibition of 3H-digoxin or 3H-quinidine bidirectional transport in cyMDR1 cells; conditions: Inhibition of quinidine transport IC50±SD, cyMDR1, probe 3H-quinidine 0.1 µM, 60 min; IC50 from ER
[9] = molecular target: T4, rat Mdr1a; assay: Inhibition of 3H-digoxin or 3H-quinidine bidirectional transport in rMDR1 cells; format: cell-based; parameters: rat Mdr1a (NM_133401.1); expressed in transfected cells; host or cells: Abcb1KO-MDCKII (canine kidney, endogenous Abcb1 knocked out), transduced, single-cell clone; conditions: IC50 from ER
[10] = molecular target: T2, cynomolgus monkey Mdr1; assay: cell-based
[11] = molecular target: T3, mouse Mdr1a; assay: Inhibition of 3H-digoxin or 3H-quinidine bidirectional transport in mMDR1 cells; format: cell-based; parameters: mouse Mdr1a (NM_011076.3); expressed in transfected cells; host or cells: Abcb1KO-MDCKII (canine kidney, endogenous Abcb1 knocked out), transduced, single-cell clone; conditions: IC50 from ER

T2 sequence (Q8HZQ6 1-1283): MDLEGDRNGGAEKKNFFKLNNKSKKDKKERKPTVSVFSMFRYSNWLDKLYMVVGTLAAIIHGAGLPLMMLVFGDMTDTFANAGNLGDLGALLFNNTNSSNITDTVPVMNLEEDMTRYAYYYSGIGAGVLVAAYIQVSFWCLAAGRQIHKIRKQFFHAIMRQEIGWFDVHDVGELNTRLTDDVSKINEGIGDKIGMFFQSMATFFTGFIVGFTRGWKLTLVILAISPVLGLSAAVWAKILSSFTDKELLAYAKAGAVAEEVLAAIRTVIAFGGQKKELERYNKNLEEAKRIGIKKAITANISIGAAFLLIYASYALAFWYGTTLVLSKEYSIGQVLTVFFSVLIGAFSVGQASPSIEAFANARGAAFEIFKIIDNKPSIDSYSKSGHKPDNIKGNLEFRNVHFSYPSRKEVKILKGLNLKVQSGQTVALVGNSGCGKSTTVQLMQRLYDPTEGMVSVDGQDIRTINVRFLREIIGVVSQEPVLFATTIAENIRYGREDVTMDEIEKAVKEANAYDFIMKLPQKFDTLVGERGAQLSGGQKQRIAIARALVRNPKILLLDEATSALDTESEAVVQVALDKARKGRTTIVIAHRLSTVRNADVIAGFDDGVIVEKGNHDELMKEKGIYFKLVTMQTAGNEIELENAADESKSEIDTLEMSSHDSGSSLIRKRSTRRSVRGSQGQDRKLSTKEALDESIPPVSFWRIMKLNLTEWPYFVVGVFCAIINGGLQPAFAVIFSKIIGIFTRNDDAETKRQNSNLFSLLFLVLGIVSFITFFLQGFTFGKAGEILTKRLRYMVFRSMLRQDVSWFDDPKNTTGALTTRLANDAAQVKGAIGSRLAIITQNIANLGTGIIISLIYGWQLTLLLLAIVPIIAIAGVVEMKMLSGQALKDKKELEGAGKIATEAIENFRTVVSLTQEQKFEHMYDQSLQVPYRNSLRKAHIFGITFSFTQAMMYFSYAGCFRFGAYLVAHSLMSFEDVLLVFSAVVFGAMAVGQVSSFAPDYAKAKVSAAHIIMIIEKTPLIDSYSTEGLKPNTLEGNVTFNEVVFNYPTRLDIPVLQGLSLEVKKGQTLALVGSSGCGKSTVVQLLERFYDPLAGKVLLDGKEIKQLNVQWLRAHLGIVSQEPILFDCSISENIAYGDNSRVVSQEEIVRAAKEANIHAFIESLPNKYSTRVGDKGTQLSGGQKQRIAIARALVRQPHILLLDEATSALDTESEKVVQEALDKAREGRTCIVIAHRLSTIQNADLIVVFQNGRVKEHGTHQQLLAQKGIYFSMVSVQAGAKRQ
Sequence of human MDR1 (P08183 whole entry): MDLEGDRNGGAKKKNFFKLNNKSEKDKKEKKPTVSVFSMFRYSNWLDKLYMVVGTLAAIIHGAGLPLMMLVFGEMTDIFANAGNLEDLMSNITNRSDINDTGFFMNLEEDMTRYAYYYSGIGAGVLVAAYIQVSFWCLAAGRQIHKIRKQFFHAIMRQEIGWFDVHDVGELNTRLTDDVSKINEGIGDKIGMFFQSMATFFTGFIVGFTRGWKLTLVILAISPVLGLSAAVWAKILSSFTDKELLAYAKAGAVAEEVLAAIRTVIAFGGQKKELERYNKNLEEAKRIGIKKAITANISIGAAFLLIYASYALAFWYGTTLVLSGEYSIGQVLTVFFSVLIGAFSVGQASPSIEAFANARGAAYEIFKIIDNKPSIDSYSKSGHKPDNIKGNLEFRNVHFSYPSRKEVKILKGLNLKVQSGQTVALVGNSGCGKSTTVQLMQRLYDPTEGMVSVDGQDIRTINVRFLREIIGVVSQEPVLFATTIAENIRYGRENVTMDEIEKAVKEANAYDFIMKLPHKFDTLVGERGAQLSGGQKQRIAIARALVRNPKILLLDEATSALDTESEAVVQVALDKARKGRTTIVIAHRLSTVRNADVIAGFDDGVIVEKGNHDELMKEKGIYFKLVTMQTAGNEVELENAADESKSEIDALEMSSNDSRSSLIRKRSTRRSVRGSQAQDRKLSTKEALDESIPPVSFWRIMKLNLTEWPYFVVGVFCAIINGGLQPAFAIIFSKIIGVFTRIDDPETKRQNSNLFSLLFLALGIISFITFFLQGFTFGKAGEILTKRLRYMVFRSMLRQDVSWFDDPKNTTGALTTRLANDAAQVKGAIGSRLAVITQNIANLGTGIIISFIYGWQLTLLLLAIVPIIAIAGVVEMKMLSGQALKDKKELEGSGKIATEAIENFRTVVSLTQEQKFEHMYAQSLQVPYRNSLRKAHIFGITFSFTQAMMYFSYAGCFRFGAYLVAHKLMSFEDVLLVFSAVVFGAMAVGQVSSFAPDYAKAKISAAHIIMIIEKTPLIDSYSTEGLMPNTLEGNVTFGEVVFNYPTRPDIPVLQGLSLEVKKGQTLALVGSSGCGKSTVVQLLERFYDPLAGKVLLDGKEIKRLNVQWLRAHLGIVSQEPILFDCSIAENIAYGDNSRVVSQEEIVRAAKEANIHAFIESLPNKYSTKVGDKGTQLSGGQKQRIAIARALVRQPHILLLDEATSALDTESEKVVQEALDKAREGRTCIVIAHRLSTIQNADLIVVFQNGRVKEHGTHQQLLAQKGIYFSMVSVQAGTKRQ
T3 sequence (P21447 whole entry): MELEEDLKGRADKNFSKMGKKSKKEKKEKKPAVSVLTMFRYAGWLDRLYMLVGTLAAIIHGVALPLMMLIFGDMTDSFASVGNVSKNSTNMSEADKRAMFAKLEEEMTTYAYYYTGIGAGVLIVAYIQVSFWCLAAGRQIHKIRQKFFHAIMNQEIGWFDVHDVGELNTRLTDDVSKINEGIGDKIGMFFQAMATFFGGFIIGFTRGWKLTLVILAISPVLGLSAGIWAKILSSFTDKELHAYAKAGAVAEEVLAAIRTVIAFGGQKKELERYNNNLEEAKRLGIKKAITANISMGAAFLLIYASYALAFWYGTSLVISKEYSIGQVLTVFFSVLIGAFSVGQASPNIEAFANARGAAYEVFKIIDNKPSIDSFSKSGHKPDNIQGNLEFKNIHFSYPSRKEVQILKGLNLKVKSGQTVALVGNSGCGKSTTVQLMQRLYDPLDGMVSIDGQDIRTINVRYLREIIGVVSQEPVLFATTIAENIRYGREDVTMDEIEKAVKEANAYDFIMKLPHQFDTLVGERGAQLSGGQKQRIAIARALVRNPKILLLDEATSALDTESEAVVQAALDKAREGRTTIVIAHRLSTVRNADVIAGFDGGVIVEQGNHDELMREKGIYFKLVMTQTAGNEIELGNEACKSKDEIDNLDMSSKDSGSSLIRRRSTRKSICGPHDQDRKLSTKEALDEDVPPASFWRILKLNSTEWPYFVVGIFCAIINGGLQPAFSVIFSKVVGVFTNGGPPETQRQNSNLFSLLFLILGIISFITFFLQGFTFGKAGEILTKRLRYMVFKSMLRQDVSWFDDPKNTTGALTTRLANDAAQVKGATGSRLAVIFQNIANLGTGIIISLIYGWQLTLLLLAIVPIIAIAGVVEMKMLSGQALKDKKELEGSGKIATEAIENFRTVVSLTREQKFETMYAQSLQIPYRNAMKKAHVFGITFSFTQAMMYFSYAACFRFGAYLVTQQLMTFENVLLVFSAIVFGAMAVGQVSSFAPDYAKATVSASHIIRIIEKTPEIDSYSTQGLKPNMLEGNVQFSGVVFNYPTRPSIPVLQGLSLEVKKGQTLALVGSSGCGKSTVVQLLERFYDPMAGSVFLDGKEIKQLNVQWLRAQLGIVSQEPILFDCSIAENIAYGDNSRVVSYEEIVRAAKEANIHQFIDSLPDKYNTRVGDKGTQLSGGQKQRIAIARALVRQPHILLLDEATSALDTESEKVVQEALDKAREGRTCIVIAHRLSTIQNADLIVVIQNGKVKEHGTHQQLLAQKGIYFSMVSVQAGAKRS
T4 sequence (Q6PSM0 1-1272): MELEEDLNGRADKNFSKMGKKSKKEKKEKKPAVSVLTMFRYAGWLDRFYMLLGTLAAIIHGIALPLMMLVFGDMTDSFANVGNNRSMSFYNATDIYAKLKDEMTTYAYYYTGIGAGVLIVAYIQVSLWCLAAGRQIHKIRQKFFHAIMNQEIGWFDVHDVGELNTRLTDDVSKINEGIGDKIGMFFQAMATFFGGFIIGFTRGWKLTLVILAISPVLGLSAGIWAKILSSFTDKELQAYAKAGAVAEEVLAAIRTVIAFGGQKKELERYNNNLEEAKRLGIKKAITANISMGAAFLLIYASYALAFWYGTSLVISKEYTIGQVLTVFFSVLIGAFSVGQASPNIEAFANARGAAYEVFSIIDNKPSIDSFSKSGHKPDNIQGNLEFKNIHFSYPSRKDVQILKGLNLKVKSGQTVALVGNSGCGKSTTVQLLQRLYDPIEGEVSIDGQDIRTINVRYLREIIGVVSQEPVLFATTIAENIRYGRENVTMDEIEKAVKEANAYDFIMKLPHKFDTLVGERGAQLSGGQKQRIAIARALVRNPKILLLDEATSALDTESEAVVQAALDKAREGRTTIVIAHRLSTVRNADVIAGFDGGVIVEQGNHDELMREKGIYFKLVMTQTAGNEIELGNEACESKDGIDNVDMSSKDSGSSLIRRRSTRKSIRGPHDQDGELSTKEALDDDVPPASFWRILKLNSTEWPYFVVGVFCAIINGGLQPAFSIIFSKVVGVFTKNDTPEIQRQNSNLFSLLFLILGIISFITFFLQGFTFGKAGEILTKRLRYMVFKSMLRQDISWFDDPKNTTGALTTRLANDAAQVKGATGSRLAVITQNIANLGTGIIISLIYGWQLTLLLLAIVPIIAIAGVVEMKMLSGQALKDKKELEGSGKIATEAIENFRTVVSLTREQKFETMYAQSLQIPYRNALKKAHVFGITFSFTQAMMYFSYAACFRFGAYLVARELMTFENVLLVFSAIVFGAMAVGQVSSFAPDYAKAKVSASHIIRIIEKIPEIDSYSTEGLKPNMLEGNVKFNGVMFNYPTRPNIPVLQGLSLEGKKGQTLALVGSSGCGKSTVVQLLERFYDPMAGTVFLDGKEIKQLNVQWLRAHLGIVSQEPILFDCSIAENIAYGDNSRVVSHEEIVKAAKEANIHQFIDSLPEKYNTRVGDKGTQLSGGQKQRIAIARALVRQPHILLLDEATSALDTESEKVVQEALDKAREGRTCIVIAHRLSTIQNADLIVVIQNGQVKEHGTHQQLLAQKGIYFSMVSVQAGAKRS

## O=C(O)COCCN1CCN(C(c2ccccc2)c2ccc(Cl)cc2)CC1 (stereo not shown) [Cetirizine]
[1]
  efflux ratio at 120 min, 1 µM: 17.7 ± 0.63
[2]
  efflux ratio at 120 min, 1 µM: 2.43 ± 0.14
[3]
  efflux ratio at 120 min, 1 µM: 4.72 ± 0.21
[4]
  efflux ratio at 120 min, 1 µM: 0.75 ± 0.03

## CC(C)NCC(O)COc1ccc(CC(N)=O)cc1 (stereo not shown) [Atenolol]
[1]
  efflux ratio at 120 min, 1 µM: 1.8 ± 0.2
[2]
  efflux ratio at 120 min, 1 µM: 1.34 ± 0.12
[5]
  CNS penetration classification based on total ER (hMDR1 + hBCRP): false negatives
[3]
  efflux ratio at 120 min, 1 µM: 1.17 ± 0.08
[6]
  efflux ratio at 120 min, 1 µM: 1.37 ± 0.19
[7]
  efflux ratio at 120 min, 1 µM: 1.22 ± 0.16

## CCCNCC(O)COc1ccccc1C(=O)CCc1ccccc1 (stereo not shown) [Propafenone]
[8]
  IC50: 1700 ± 800 nM
[9]; Inhibition of digoxin transport IC50±SD, rMDR1, probe 3H-digoxin 1 µM, 120 min
  IC50: 6230 ± 1150 nM
[9]; Inhibition of quinidine transport IC50±SD, rMDR1, probe 3H-quinidine 1 µM, 30 min
  IC50: 1710 ± 170 nM
[10]
  IC50: 300 ± 170 nM
[11]; Inhibition of digoxin transport IC50±SD, mMDR1, probe 3H-digoxin 1 µM, 120 min
  IC50: 21400 ± 1850 nM
[11]; Inhibition of quinidine transport IC50±SD, mMDR1, probe 3H-quinidine 1 µM, 60 min
  IC50: 1990 ± 1070 nM

## CCCCc1oc2ccccc2c1C(=O)c1cc(I)c(OCCN(CC)CC)c(I)c1 [Amiodarone]
[1]
  efflux ratio at 120 min, 1 µM: 0.71 ± 0.09
[2]
  efflux ratio at 120 min, 1 µM: 3.13 ± 1.74
[3]
  efflux ratio at 120 min, 1 µM: 2.51 ± 0.26
[6]
  efflux ratio at 120 min, 1 µM: 0.41 ± 0.07
[4]
  efflux ratio at 120 min, 1 µM: 0.36 ± 0.04
[7]
  efflux ratio at 120 min, 1 µM: 0.41 ± 0.05

## CCN(CC)CC(=O)Nc1c(C)cccc1C [Lidocaine]
[1]
  efflux ratio at 120 min, 1 µM: 0.91 ± 0.08
[2]
  efflux ratio at 120 min, 1 µM: 0.8 ± 0.04
[3]
  efflux ratio at 120 min, 1 µM: 0.95 ± 0.04
[6]
  efflux ratio at 120 min, 1 µM: 0.87 ± 0.06
[4]
  efflux ratio at 120 min, 1 µM: 0.84 ± 0.02
[7]
  efflux ratio at 120 min, 1 µM: 0.93 ± 0.03
